PubChem BioAssay AID504832 (National Center for Advancing Translational Sciences (NCATS), 2011)
Among all 310,000 compounds or so, about 18,000 (5.8%) were called active. This list was built around the results that the source calls inconclusive (neither active nor inactive); the mix of calls is not that of the screen. Calls follow the shape of the dose curve; as a rule, active = well fitted inhibition curve with a large enough effect; inconclusive = small, poorly fitted or top-dose-only effect, or another doubt; inactive = no such curve, though single readings can be large or run the other way. No potency is given beside an inconclusive call; the fits are too rough.
% is scaled to controls: 0 for no effect and ±100 for the full control effect; potency is read from the fitted curve at half-maximal effect; tags tell the direction and shape of the fitted curve.

Experiment: Primary qHTS for delayed death inhibitors of the malarial parasite plastid, 48 hour incubation
Conditions: P. falciparum luciferase growth in erythrocytes; series mostly up to 28.7 µM; activity change, negative = inhibition: at the top concentration
Procedure, shortened: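 In quantitative HTS format, infected erythrocytes bearing luciferase-reporter parasites were treated for a single generation at 37 C. Luminescence after adding detection reagent served as the growth measure.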
For `CCCCC/C=N/NC(=O)c1[nH]c2ccc([N+](=O)[O-])cc2c1C`, the Potency was inconclusive [inhibitor, single point]. In the case of `Cc1onc(-c2ccccc2)c1-c1ccc(S(N)(=O)=O)cc1`, the Potency is reported as inconclusive [inhibitor, single point]. In the case of `Cc1ccc(-n2c(=O)[nH]cc(C(=O)Nc3ccc4c(c3)OCCO4)c2=O)cc1`, the “activity change, negative = inhibition” value is reported as inactive: 9.55%. With `O=C(CCCCCNc1nc(=S)[nH]c2ccccc12)NCCC1=CCCCC1` the Potency was inconclusive [inhibitor, single point]. In the case of `C/C(N)=C(/C#N)C(=O)CSc1nc2ccccc2c(=O)n1Cc1ccc(F)cc1`, the Potency is reported as inconclusive [inhibitor, partial curve, poor fit]. With `COc1cccc(OCCCn2ccnc2)c1` the “activity change, negative = inhibition” value was inactive: 43.5%. For `COc1ccc(OC)c(C2C(C#N)=C(N)Oc3cc(N)ccc32)c1` (stereo not given), the Potency was inconclusive [inhibitor, partial curve]. For `CN(Cc1nc(-c2ccc(Cl)cc2)no1)C(=O)c1ccco1`, the “activity change, negative = inhibition” value was inactive: 32.3%. In the case of `Cc1ccc(SC2CCN(C(=O)C3CCC(=O)N(C4CC4)C3)CC2)cc1` (stereo not given), the “activity change, negative = inhibition” value is reported as inactive: -2.97%. In the case of `COc1ccccc1NC(=S)NC1CCC(CC2CCC(NC(=S)Nc3ccccc3OC)CC2)CC1` (stereo not given), the Potency is reported as active: 11.7 µM. In the case of `COC(=O)CN1C(=S)N(c2ccc(F)cc2)C(=O)C1CC(=O)Nc1ccccc1` (stereo not given), the Potency is reported as inconclusive [inhibitor, single point]. With `CC(C)C[C@H]1CN=C(Nc2ccccc2)N1CCCC1CCCCC1` the Potency was inconclusive [inhibitor, partial curve]. With `CCOc1ccc(C(C)C)cc1S(=O)(=O)N1CCN(C(=O)c2ccco2)CC1` the Potency was inconclusive [inhibitor, partial curve, poor fit]. For `CC(=O)c1ccc(NC(=O)C2CCCN(c3ncnc4c3nc3n4CCCCC3)C2)cc1` (stereo not given), the Potency was inconclusive [inhibitor, partial curve]. In the case of `Nc1nc2c(c(=O)[nH]1)C(c1ccccc1)C1=C(N2)c2ccccc2C1=O` (stereo not given), the Potency is reported as active: 9.28 µM. In the case of `CCOC(=O)[C@@H]1[C@H]2COc3ccccc3[C@H]2N2C(=O)N(c3ccc(Cl)cc3)C(=O)[C@]12C`, the Potency is reported as active: 13.1 µM. In the case of `COc1cc(CN2CCN(CCc3ccccc3)C(CCO)C2)cc(OC)c1` (stereo not given), the Potency is reported as inconclusive [inhibitor, full curve]. In the case of `COc1ccc(C(C(=O)NC2CCCC2)N(C(=O)c2snc(-c3ccc(F)cc3)c2N)c2ccc(OC)cc2)cc1` (stereo not given), the Potency is reported as inconclusive [inhibitor, full curve]. For `O=C(N=C1SC2CS(=O)(=O)CC2N1c1ccc(F)cc1F)C1CC1` (stereo not given), the “activity change, negative = inhibition” value was inactive: 24.1%. For `CCN1C/C(=C\c2cccc([N+](=O)[O-])c2)C(=O)/C(=C/c2cccc([N+](=O)[O-])c2)C1`, the Potency was active: 2.94 µM. In the case of `Cc1cc(C(=O)OCC(=O)Nc2cc(C(F)(F)F)ccc2N2CCOCC2)c(C)o1`, the Potency is reported as inconclusive [inhibitor, single point]. In the case of `O=C(Nc1ccc(N2CCN(C(=O)c3cccs3)CC2)cc1)c1ccc([N+](=O)[O-])o1`, the Potency is reported as inconclusive [inhibitor, partial curve]. With `COc1ccc(C2=NOC(C(=O)NCc3cccnc3)C2)cc1` (stereo not given) the “activity change, negative = inhibition” value was inactive: 21.9%. With `COc1ccc(N2CCN(C(=O)c3oc4ccccc4c3NC(=O)Cc3cccc(OC)c3)CC2)cc1` the Potency was inconclusive [inhibitor, partial curve]. For `CCC(C(=O)NCC1CCCO1)n1nc(C)c2sc3ccccc3c2c1=O` (stereo not given), the “activity change, negative = inhibition” value was inactive: -9.11%. In the case of `O=C(c1ccco1)N1CCN(c2ccc([N+](=O)[O-])c(N3CCOCC3)c2)CC1`, the Potency is reported as inconclusive [inhibitor, single point]. In the case of `COc1cccc(NC(=O)CSc2nc3n[nH]c(C)c3c(=N)n2-c2cccc(OC)c2)c1`, the Potency is reported as active: 10.4 µM. With `COC(=O)c1ccc(NS(=O)(=O)c2cc3c4c(c2)CCC(=O)N4CCC3)cc1` the Potency was inconclusive [inhibitor, single point]. In the case of `CN1CCN(c2ccccc2NC(=O)c2ccc([N+](=O)[O-])cc2Cl)CC1`, the Potency is reported as inconclusive [inhibitor, single point]. For `O=C(NC1CCCC1)C(c1ccccc1)N(Cc1ccco1)C(=O)Cc1cccs1` (stereo not given), the “activity change, negative = inhibition” value was inactive: -8.84%. With `CCCCCC(O)(CCN1CCCCC1)c1ccc(OCC)cc1` (stereo not given) the Potency was inconclusive [inhibitor, partial curve]. In the case of `CC(=O)Nc1ccc(C(=O)Nc2ccc(S(=O)(=O)N3CCCC3)cc2)cc1`, the Potency is reported as inconclusive [inhibitor, single point]. In the case of `O=C(CCSc1ccc(Cl)cc1)NC1CCCC1`, the “activity change, negative = inhibition” value is reported as inactive: 24.7%. For `NC(=O)c1nn(-c2ccccc2)nc1NC(=O)Cn1nnc(-c2ccccc2)n1`, the “activity change, negative = inhibition” value was inactive: 24%. In the case of `COc1cc(SC#N)ccc1N=Cc1c(C)[nH]n(-c2cccc3ccccc23)c1=O`, the Potency is reported as active: 9.28 µM. With `O=S(=O)(c1ccccc1)N1CCN=C1SCc1ccccc1` the Potency was inconclusive [inhibitor, single point]. With `COC(=O)c1c(NC(=O)CSc2ccccc2N)sc(C)c1C` the Potency was inconclusive [inhibitor, full curve, poor fit]. In the case of `CC(C)(C)c1ccccc1NC(=O)c1ccc2c(c1)SC1=NS(=O)(=O)CCN12`, the Potency is reported as inconclusive [inhibitor, partial curve, poor fit]. In the case of `CSC(=NC#N)N1CCN(c2ccc([N+](=O)[O-])cc2)CC1`, the Potency is reported as inconclusive [inhibitor, partial curve]. With `CCCCn1c(=N)n(CC(=O)c2ccc(OC)cc2)c2ccccc21` the Potency was inconclusive [inhibitor, single point]. With `CC(Cl)C(=O)Nc1cc(C(F)(F)F)ccc1N1CCOCC1` (stereo not given) the Potency was inconclusive [inhibitor, partial curve, poor fit]. For `Cc1cccc(N2CCN(C(=O)n3ccnc3)CC2)c1C`, the Potency was inconclusive [inhibitor, single point]. With `CC(=O)N1CCCc2cc(S(=O)(=O)N3CCN(c4ccccn4)CC3)ccc21` the “activity change, negative = inhibition” value was inactive: -25.5%. In the case of `COc1ccc2nc(N3C(=O)CNC3=S)sc2c1`, the “activity change, negative = inhibition” value is reported as inactive: 15.1%. For `COc1cccc(-c2ncc3ccccc3c2COC(=O)c2cccc(Br)c2)c1`, the Potency was inconclusive [inhibitor, single point]. With `O=C(Nc1cccnc1)c1noc2c1CCCC2` the “activity change, negative = inhibition” value was inactive: 109%. With `C=CC[n+]1ccc2ccccc2c1C` the Potency was inconclusive [inhibitor, full curve]. With `N#C/C(=C\c1ccccn1)c1nc2ccccc2s1` the “activity change, negative = inhibition” value was inactive: 25.9%. In the case of `CN1CCN(c2nc(-c3cc4ccccc4o3)cs2)CC1`, the “activity change, negative = inhibition” value is reported as inactive: 107%. With `Cc1ccc(NS(=O)(=O)c2ccc3c(c2)NC(=O)CCS3)cc1C` the Potency was active: 13.1 µM. In the case of `O=C(O)c1cccc2c1NC(c1cccc([N+](=O)[O-])c1)C1CC(Sc3ccccc3[N+](=O)[O-])C(Cl)C21` (stereo not given), the Potency is reported as inconclusive [inhibitor, full curve]. With `N#CC(C#N)=C1C=CC=CN1/C(=C\c1ccco1)C(=O)c1ccccc1` the Potency was inconclusive [inhibitor, single point]. With `CCOc1ccccc1NC(=O)CSc1nccn1-c1ccccc1` the Potency was inconclusive [inhibitor, single point]. With `CN(Cc1ccccc1)S(=O)(=O)c1ccc(NC(=S)NC(=O)C2CCCCC2)cc1` the Potency was inconclusive [inhibitor, partial curve]. For `CN(c1ccc([N+](=O)[O-])cc1C(=O)Nc1ccccc1)C1CCCCC1`, the “activity change, negative = inhibition” value was inactive: -19.4%. In the case of `COc1ccc(C(=O)NCc2nnc(SCC(=O)N3CCCc4ccccc43)o2)cc1OC`, the Potency is reported as inconclusive [inhibitor, single point]. With `O=C(O)c1ccc(N/N=C2/CCSc3ccc(F)cc32)cc1` the “activity change, negative = inhibition” value was inactive: 9.56%. With `O=C(O)Cc1c(C(=O)O)nnn1-c1ccc(Cl)cc1Cl` the Potency was inconclusive [inhibitor, partial curve, poor fit]. In the case of `Cc1ccccc1N1CC(C(=O)Nc2ccc3c(c2)OCO3)CC1=O` (stereo not given), the “activity change, negative = inhibition” value is reported as inactive: 5.88%. In the case of `O=C(CSc1nnc(NC(=O)c2ccco2)s1)Nc1cccc(F)c1`, the “activity change, negative = inhibition” value is reported as inactive: 64.7%. With `COC(=O)[C@H](CC(C)C)NC(=O)Nc1ccc2c(c1)OCCO2` the “activity change, negative = inhibition” value was inactive: 83.8%. With `C#CCCOC(=O)N1C2=NC(C(=O)OC)=C(C(=O)OC)[C@@H]3N(CC=C)c4ccccc4[C@]23C[C@H]1C(=O)OC` the Potency was inconclusive [inhibitor, partial curve, poor fit]. In the case of `N#CCC1c2ccccc2CCN1C(=O)Nc1ccc(C(F)(F)F)cc1` (stereo not given), the Potency is reported as active: 13.1 µM. With `CN(Cc1ccccc1)c1nc(N)nc(Cl)c1C=O` the Potency was inconclusive [inhibitor, partial curve, poor fit]. For `CCN1CCCC1CN=Cc1c(O)n(-c2ccccc2)c(=O)c2ccccc12` (stereo not given), the Potency was active: 3.7 µM. With `COc1ccc(OC)c(NC(=O)c2ccccc2NS(=O)(=O)c2cccc3cccnc23)c1` the Potency was inconclusive [inhibitor, single point]. In the case of `Cc1ccc(NC(=O)/C(C#N)=C/c2cc(C)n(-c3ccc(N4CCOCC4)c([N+](=O)[O-])c3)c2C)c(C)c1`, the Potency is reported as inconclusive [inhibitor, full curve, poor fit]. In the case of `Clc1ccc(-c2nc3ccccn3c2CN2CCSCC2)cc1`, the Potency is reported as inconclusive [inhibitor, single point]. With `O=C(COc1cccc(Br)c1)N/N=C1\CCCc2ccccc21` the “activity change, negative = inhibition” value was inactive: 40.4%. With `N/C(Cc1nc2ccccc2s1)=N\O` the Potency was inconclusive [inhibitor, partial curve, poor fit].
